In PubChem BioAssay AID492947 (National Center for Advancing Translational Sciences (NCATS), 2010):
The campaign covered roughly 330,000 compounds. About 80 (0.02%) were called active. The inconclusive results got no clear call from the source; some entries with a clear call stand among them for comparison. Calls follow the shape of the dose curve; as a rule, active = well fitted activation curve with a large enough effect; inconclusive = small, poorly fitted or top-dose-only effect; inactive = flat fitted curve, though single readings scatter. No potency is given beside an inconclusive call; the fits are too rough.

Biological target: Beta-2 adrenergic receptor (Homo sapiens) (UniProt P07550)
Assay: qHTS assay of beta-arrestin-biased ligands of beta2-adrenergic receptor; also: nearly all actives have a fitted effect of over 65% in size;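 as to activation: 0% = DMSO controls and full agonism = EC100 isoproterenol or metaproterenol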
Settings: beta-arrestin recruitment to beta2AR, cell-based reporter; series mostly up to 46.1 µM; activation: at the top concentration
Summary of the method: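 Tango cells (recombinant beta2-AR with recombinant beta-arrestin; recruitment releases tTA driving luciferase) were treated with compounds titrated up to 46 microM for 18 hr at 37 degrees C. Luminescence gave %Activity, and concentration-response curves were curve-classified.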
Potency is read from the fitted curve at half-maximal effect; tags tell the direction and shape of the fitted curve.

Sequence of UniProt P07550 (P07550 whole entry, looked up): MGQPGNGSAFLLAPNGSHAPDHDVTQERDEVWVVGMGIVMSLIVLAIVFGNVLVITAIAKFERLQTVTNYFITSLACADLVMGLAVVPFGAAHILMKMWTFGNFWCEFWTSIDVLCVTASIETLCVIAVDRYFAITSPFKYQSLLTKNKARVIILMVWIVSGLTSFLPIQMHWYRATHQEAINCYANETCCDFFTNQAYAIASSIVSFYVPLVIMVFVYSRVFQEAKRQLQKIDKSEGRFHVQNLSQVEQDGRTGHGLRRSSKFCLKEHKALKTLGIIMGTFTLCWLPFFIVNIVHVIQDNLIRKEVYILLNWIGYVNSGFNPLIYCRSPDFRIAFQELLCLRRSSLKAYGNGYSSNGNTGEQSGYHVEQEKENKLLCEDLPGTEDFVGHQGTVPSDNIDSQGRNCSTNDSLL

| Structure (SMILES) | Potency | activation |
| --- | --- | --- |
| O=[N+]([O-])c1ccc(Sc2cccc3cccnc23)c([N+](=O)[O-])c1 | inconclusive [rising, single point] |  |
| Cc1ccc(NC(=O)CSc2cccc3cccnc23)c(C)c1 | inconclusive [rising, single point] |  |
| N=C1SCC(=O)N1c1ncc(Cc2ccccc2Cl)s1 | inconclusive [rising, single point] |  |
| CCN1CCN(C(=S)NC(=O)c2cccc(Br)c2)CC1 | inconclusive [rising, single point] |  |
| CC1CCN(c2c(NCc3ccc(C(=O)NCCc4ccc(Cl)cc4)cc3)c(=O)c2=O)CC1 | inconclusive [rising, single point] |  |
| COCCNC(=S)NN=C1CCCCC1 | inconclusive [rising, single point] |  |
| Cc1nnc(SCC(=O)c2c[nH]c3ccccc23)n1C1CC1 |  | inactive: -0.0024% |
| CCNC(=S)N/N=C(\C)c1ccc2ccccc2c1 | inconclusive [rising, single point] |  |
| CCc1ccc(NC(=S)NC2CC3CCCC(C2)N3Cc2cccs2)cc1 (stereo unspecified) |  | inactive: -0.272% |
| Cc1cc(C(=O)NC2Cc3ccccc3C2)c(C)o1 |  | inactive: 0.318% |
| C=C(C)c1cccc(C(C)(C)NC(=O)NC2CCN(Cc3ccccc3)CC2)c1 | inconclusive [rising, single point] |  |
| O=C1c2ccccc2C(Nc2ccc3c(c2)OCCO3)N1Cc1ccco1 (stereo unspecified) | inconclusive [rising, single point] |  |
| COc1ccc(C2C(C#N)=C(N)Oc3cc(N)ccc32)cc1OC (stereo unspecified) | inconclusive [rising, single point] |  |
| Cc1cc(C)nc(S/C=C/C(=O)c2ccccc2F)n1 | inconclusive [rising, single point] |  |
| CCCC(=O)Nc1ccc(Nc2ccccc2)cc1 | inconclusive [rising, single point] |  |
| Cc1cc(NC(=O)CCC(=O)N(Cc2cccnc2)C(C(=O)NC(C)(C)C)c2ccccc2Cl)no1 (stereo unspecified) |  | inactive: -0.296% |
| CC(=O)N1CCN(c2ccc(NC(=O)COc3ccc(Cl)cc3Cl)cc2)CC1 |  | inactive: -0.491% |
| C/C(=N/NC(=O)c1ccoc1C)c1ccc(NC(=O)C2CCCC2)cc1 | inconclusive [rising, single point] |  |
| O=C(Nc1nc(-c2cccs2)cs1)c1ccc(S(=O)(=O)N2CCCCC2)cc1 |  | inactive: 0.0502% |
| CCN(C(=O)CN1CCCCCC1)c1c(N)n(Cc2ccccc2)c(=O)[nH]c1=O |  | inactive: 6.18% |
| O=C(/C=C\c1ccccc1)Oc1cccc2cccnc12 | inconclusive [rising, single point] |  |
